# Assay results from publication PMC4336329 (PLoS ONE, 2015).
# Screen size: about 310,000 compounds; about 2,200 (0.71%) showed an effect of 50% or more. The effect is printed as a negative number. Some of the results follow.
# Target: human ether-à-go-go-related gene (hERG) potassium channel (human, UniProt Q12809)
# Test: primary screen, population patch clamp on CHO cells stably expressing hERG
# Chain of human ether-à-go-go-related gene (hERG) potassium channel (Q12809 whole entry, looked up): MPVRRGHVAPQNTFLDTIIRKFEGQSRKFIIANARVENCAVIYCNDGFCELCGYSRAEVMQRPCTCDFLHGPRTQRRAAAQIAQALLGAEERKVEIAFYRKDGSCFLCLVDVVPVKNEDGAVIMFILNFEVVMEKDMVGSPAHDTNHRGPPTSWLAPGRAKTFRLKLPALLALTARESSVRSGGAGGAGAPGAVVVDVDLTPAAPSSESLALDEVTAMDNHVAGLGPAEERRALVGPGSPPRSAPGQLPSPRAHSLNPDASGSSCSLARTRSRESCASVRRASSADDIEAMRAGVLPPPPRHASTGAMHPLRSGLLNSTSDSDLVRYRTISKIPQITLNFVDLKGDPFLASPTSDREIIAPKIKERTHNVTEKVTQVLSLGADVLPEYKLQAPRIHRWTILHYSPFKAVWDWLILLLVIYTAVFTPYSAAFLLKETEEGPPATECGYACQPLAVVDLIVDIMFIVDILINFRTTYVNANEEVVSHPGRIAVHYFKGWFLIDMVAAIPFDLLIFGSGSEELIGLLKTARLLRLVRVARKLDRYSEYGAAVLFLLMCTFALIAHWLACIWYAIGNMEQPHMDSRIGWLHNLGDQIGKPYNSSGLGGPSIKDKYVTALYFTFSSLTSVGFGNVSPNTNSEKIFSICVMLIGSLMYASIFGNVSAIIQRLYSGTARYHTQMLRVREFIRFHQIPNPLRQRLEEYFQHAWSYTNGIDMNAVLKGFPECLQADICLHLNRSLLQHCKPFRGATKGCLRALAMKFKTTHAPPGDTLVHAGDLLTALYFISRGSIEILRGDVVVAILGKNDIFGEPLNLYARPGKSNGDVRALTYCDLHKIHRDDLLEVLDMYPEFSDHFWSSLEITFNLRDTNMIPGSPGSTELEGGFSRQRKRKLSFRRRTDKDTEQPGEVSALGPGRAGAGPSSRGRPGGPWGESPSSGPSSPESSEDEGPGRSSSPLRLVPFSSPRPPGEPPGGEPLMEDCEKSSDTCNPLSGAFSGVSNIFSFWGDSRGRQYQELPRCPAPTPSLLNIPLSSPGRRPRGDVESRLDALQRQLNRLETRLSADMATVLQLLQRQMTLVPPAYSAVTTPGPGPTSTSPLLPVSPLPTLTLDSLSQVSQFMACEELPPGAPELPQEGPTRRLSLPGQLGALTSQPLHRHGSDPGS
row,Compound,"hERG current change (%, negative = inhibition) at 1uM [%]"
1,Cn1c(=O)c2c3c(sc2n2c(SCc4ccccc4)nnc12)CCCC3,6.74
2,CN(C)S(=O)(=O)c1cccc(COC(=O)C2=COCCO2)c1,13.3
3,Cc1cc(NC(=O)c2ccc([N+](=O)[O-])cc2)n(C)n1,16.7
4,COc1ccc(OC)c(NC(=O)c2cc(-c3cc(Cl)ccc3O)n[nH]2)c1,8.16
5,Clc1ccc(Cn2ncc3c(NCc4ccccc4)ncnc32)cc1,8.45
6,COC(=O)C1(CCSC)NC(c2ccccc2F)C2C(=O)N(c3ccc4c(c3)OCCO4)C(=O)C21 (stereo not drawn),8.33
7,Cc1ccc(N2CC(C(=O)Nc3cc(C)on3)CC2=O)c(C)c1 (stereo not drawn),6.95
8,CC1Oc2ccccc2N(CC(=O)NC2CCCCC2)C1=O (stereo not drawn),13
9,CCCSc1nnc(NC(=O)CCc2ccccc2)s1,14.7
10,CCCCCCc1nc(C(N)=O)c2[nH]c(=O)n(-c3ccc(OCC)cc3)c2n1,13.4
11,CC(C)Cc1nc(NCCN2CCOCC2)c(C#N)c2c1COC(C)(C)C2,-2.68
12,CCCCn1c(N)c(N(CCOC)C(=O)Cn2c(=O)cnc3ccccc32)c(=O)[nH]c1=O,12.9
13,Cc1cccc(-c2cc(C(=O)N/N=C/c3cccnc3)c3ccccc3n2)c1,4.91
14,C/C(=N\NC(=O)c1cc2ccccc2cc1O)c1cc2ccccc2o1,10.5
15,CC(C)C(=O)N1CCN(c2ccc(NC(=O)c3ccco3)cc2Cl)CC1,8.51
16,Cc1cccn2c(=O)c(C=O)c(Nc3ccc(S(N)(=O)=O)cc3)nc12,6.17
17,CCn1cc(C(=O)NCCc2ccc(C)cc2)c(=O)c2cc(S(=O)(=O)N(C)C)ccc21,9.74
18,O=C(COc1ccc(S(=O)(=O)Nc2ccc(Cl)cc2)cc1)N1CCOCC1,-3.99
19,CN1C(=O)C2(OCC(COc3ccc(Cl)cc3)O2)c2ccccc21 (stereo not drawn),13.7
20,C=CCn1cc(-c2cccc(Cl)c2)cc(C#N)c1=O,12
21,CC(=O)C1CCC2C3CCC4CC(O)CCC4(C)C3CCC12C (stereo not drawn),10.8
22,O=C(/C=C/c1cccc(F)c1)N1CCc2ccccc21,12.5
23,COc1ccccc1C(=O)NNC(=O)c1csc(N2CCOCC2)n1,10.8

row,Compound,"hERG current change (%, negative = inhibition) at 1uM [%]"
1,C/C(=N/NC(=O)CCc1c(C)n[nH]c1C)c1cccc([N+](=O)[O-])c1,14
2,O=C(Nc1ccccn1)c1cc(-c2cccnc2)nc2ccc(Br)cc12,7.74
3,COc1ccc(/C=C2\COc3ccccc3C2=O)c(OC)c1,14.3
4,COC(=O)c1ccc(CSc2nnc(-c3c[nH]c4ccccc34)n2-c2ccccc2)cc1,7.08
5,COc1cc2[nH]c(C(=O)N3CCN(c4ccccc4F)CC3)cc2c(OC)c1OC,12.7
6,O=C(CSc1nncc2ccccc12)N1CCCCC1,9.98
7,CCCCCc1c(C)c(C#N)c2nc3ccccc3n2c1-n1ccnc1C,-5.82
8,Cc1ccc(C)c(NC(=O)COC(=O)c2cccc3c2C(=O)c2ccccc2C3=O)c1,10
9,CCn1c(SCC(=O)N(C)Cc2ccc(OC)c(F)c2)nc2cc(S(N)(=O)=O)ccc21,9.15
10,Cc1ccccc1OCC(=O)Nc1ccccc1C(=O)NC1CC1,8.41
11,O=C(Nc1nc2ccccc2[nH]1)c1cccc(Br)c1,10.8
12,O=C(CCCCCBr)N1CCC(CC2CC(c3ccc(Cl)cc3)=NO2)(C(=O)NCC2CCCCC2)CC1 (stereo not drawn),-37.5
13,CCC(C)N(C)C1CCN(C(=S)Nc2cccc(SC)c2)CC1 (stereo not drawn),-17.6
14,CC(C)[C@H](NC(=O)Nc1cccc(C(F)(F)F)c1)C(=O)O,11.9
15,CCOC(=O)C1Nc2ccc(Br)cc2C2C=CCC12 (stereo not drawn),11.2
16,CCOC(=O)C1Cn2c(nc3c(c2=O)C(C)(CC)Cc2ccccc2-3)S1 (stereo not drawn),13.2
17,Cc1ccccc1NC(=O)C(=O)N/N=C/c1cccc(Br)c1,4.04
18,COc1ccc(CN2CCCC(C(=O)c3sccc3C)C2)cc1O (stereo not drawn),-32.9
19,O=C(C[n+]1cccc(CNC(=O)c2ccc(OC(F)F)cc2)c1)Nc1ccc(F)cc1.[Cl-],6.51
20,O=C1CC2(CCN(C(=O)COc3ccccc3F)CC2)Oc2ccccc21,-12.6
21,CC(C)(C)OC(=O)N1CCCC1C(=O)NCCc1ccccc1 (stereo not drawn),9.94
22,COc1cccc(CNC(=O)COC(=O)c2c(C)nn(-c3ccccc3)c2Cl)c1,4.31
23,N#Cc1c(NC(=O)c2ccccc2Cl)n(Cc2ccccc2)c2nc3ccccc3nc12,11.9

row,Compound,"hERG current change (%, negative = inhibition) at 1uM [%]"
1,COc1cccc(-c2nc(S(=O)(=O)c3ccccc3)c(N3CCOCC3)o2)c1,-1.82
2,CC(=O)Cc1ccccc1OC(=O)c1ccco1,13.7
3,COCCOc1ccc(C(F)(F)F)cc1NC(=O)COC(=O)c1c(C)noc1C,2.25
4,Cc1ccc(CNC(=O)C(=O)NCCC2CCCCN2S(=O)(=O)c2ccccc2)cc1 (stereo not drawn),-0.32
5,COCCNC(=S)N(c1ccccc1)C(C)C,1.87
6,CCOC(=O)N1CCN(C(=O)C2CCCN(S(=O)(=O)c3ccc(F)cc3)C2)CC1 (stereo not drawn),4.93
7,CCCCNC(C(=O)Nc1ccc([N+](=O)[O-])cc1Br)c1ccccc1 (stereo not drawn),10.5
8,O=C(Nc1ccccc1)c1cccn(Cc2ccccc2)c1=O,17.6
9,CC(C)c1ccc(NC(=O)Cc2c(C(=O)O)n(C)c3ccccc23)cc1,12
10,O=C1C(Cl)=C(Nc2ccccc2)C(=O)c2ccccc21,10.6
11,COc1ccc(C)cc1NCc1ccc(OC)c(C)c1OC.O=C(O)C(=O)O,-0.016
12,Cc1nc2c(C)c(C)c(C)c(C)c2nc1C,10.2
13,O=C(c1ccc(Cn2cc([N+](=O)[O-])cn2)o1)N1N=C(C(F)F)CC1(O)C(F)F (stereo not drawn),-2.42
14,Cc1ccn2c(CN3CCOCC3)c(-c3ccccc3)nc2c1,1.61
15,Cc1cc[n+](C(C)C(=O)c2ccc(Cl)cc2)cc1.[Br-] (stereo not drawn),6.3
16,O=C(CN1CCN(S(=O)(=O)c2ccc(F)c(Cl)c2)CC1)N1CCOCC1,9.65
17,COc1ccc(/C=C/C2=CC(C)(C)NC(=S)N2)c(OC)c1,22.6
18,Cc1ccc(-c2csc(N(Cc3ccco3)C(=O)c3cccs3)n2)cc1,6.75
19,Cn1ccnc1-c1nc2ccccc2[nH]c1=O,8.2
20,O=C(NC(c1ccccc1)c1ccccc1)N1CCOCC1,13.5
21,Nc1ccccc1Cl,7.83
22,COc1ccc2cc3c(N)nn(C(=O)Cc4ccccc4OC)c3nc2c1,-4.4
23,O=C(Nc1ccnn1C1CCN(C/C=C/c2ccc(F)cc2)CC1)C1CCCC1,-79.3

row,Compound,"hERG current change (%, negative = inhibition) at 1uM [%]"
1,O=C(C1CCCN(S(=O)(=O)c2ccccc2)C1)N1CCCc2ccccc21 (stereo not drawn),4.22
2,CSc1nc(O)c(Nc2cccc(Cl)c2)c(=O)[nH]1,9.29
3,COc1ccc(S(=O)(=O)Nc2ccc3c(c2)OCO3)cc1OC,18.8
4,CC(=O)N1CCN(C(=O)c2cc(S(=O)(=O)N(C)c3ccc(F)cc3)ccc2Cl)CC1,-1.89
5,COc1cc(/C=N\NS(=O)(=O)c2ccccc2)cc(OC)c1OC,14.7
6,CCCCNC(=O)COC(=O)c1ccc(Cl)c(S(N)(=O)=O)c1,10.6
7,CCOC(=O)CN1C(=O)/C(=C/c2c(F)cccc2Cl)Oc2ccccc21,0.272
8,CCCCOc1ccc(C(=O)NC)cc1,2.01
9,N[C@@H](Cn1oc(=O)[nH]c1=O)C(=O)O,15.8
10,Cl.O=C(CNCCO)N1CCc2ccccc21,-0.586
11,NS(=O)(=O)c1ccc(-c2ccc(C=C3C(=O)NC(=S)NC3=O)o2)cc1,9.92
12,Cc1cccc(C(=O)N2CCCC(Nc3ccc(C)c(C)c3)C2)n1 (stereo not drawn),-2.48
13,Cc1ccc2oc(=O)c3cnn(CC(=O)NCCN(C)C)c3c2c1,11.5
14,O=C(CN(C(=O)c1csnn1)c1cccc2ccccc12)NCc1ccc(F)cc1,-2.45
15,Cn1c(SCC(=O)Nc2nncs2)nnc1C1CC1,10.8
16,CC12CC3CC(C)(C1)CC(C(=O)N1CCN(C(=O)c4ccco4)CC1)(C3)C2,4
17,Cc1ccc(C2=NN(CCC(=O)NCCC(C)C)C(=O)CC2)cc1,13.2
18,CCOC(CNC(=O)CN1C(=O)COc2ccc(S(=O)(=O)N3CCCC3)cc21)OCC,11.4
19,CC(=O)c1cccc(NC(=O)CCNS(=O)(=O)c2cccc3nsnc23)c1,12.1
20,Cc1cc(N2CCCCC2)nc(NCc2ccccc2)n1,-3.64
21,Cc1cccc(OCC(=O)NNC(=O)Nc2cccc(Cl)c2)c1C,9.61
